Measurements from the supplement of paper PMC10338343.
± gives the standard deviation. The full ranking holds about 6,600 sequences; the median of “pre-steady-state target cleavage rate” is about 0.07, and the highest 2% start at about 0.72. The list shows a part of the results, in another mix than the full data.

test system: MIWI (PIWIL1) piRISC loaded with Kctd7 piRNA (30 nt); assay: pre-steady-state target cleavage rate (min^-1); MIWI and MILI are mouse PIWI proteins and EfPiwi is from a freshwater sponge; tags in brackets are library labels; higher = faster piRNA-guided slicing of the target; conditions: guide: Kctd7 piRNA 5'p-UGUUAAUCUCUCAGAGAAGGUGACAGUGAU; auxiliary factor: 500 nM mouse GTSF1
Method in brief: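 Cleave-'n-Seq: 1 nM active affinity-purified piRISC with one synthetic guide and 0.1 nM transcribed, DNA-blocked target RNA library were mixed, with or without 500 nM GTSF1 partner protein, in HEPES–potassium acetate buffer at 33 °C for 0–8 or 0–960 min. Uncleaved targets were sequenced and normalised to depth and to weakly complementary targets, three trials were pooled, and k3 was capped at 0.0001 min^-1. The pre-steady-state cleavage rate was fitted […].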

Row | Sequence | pre-steady-state target cleavage rate
1 | UAGUGUGACACCUACUCUGAGAGAUUAACA | 0.356 ± 0.026
2 | UAGUCUGUCACCAUGUCUGAGAGAUUAACA | 0.153 ± 0.011
3 | UACACUGUCACCUUGUCUGAGUGAUUAACA | 0.0308 ± 0.0062
4 | UAGACUGUCAGCUACUCUGAGAGAUUAACA | 0.448 ± 0.034
5 | UAGUGUGACACCUUCUGUGAGAGAUUAACA | 0.364 ± 0.029
6 | UAGUCUGUCACCUACUCUGUGAGAUUAACA | 0.166 ± 0.011
7 | AUCAUUGUCACCUUCUCUGAGAGAUUAACA | 0.593 ± 0.028
8 | UAGUGACAGUGCUUCUCUGAGAGAUUAACG [g2:g19:cont:t1G] | 0.0113 ± 0.0021
9 | UAGUCUGUGACCUUCUCUGAGAGUUUAACA | 0.178 ± 0.026
10 | UUCACUGUCACCUUGUCUGAGAGAUUAACA | 0.431 ± 0.053
11 | AUCUGAGUCACCUUCUCUGAGAGAUUAUGA | 0.109 ± 0.023
12 | UUCACUGUCACCUACUCUGAGAGAAUAACA | 0.29 ± 0.037
13 | UAGUCAGUCAGCUUCUCUGAGAGAUUAACA | 0.708 ± 0.036
14 | UAGUGACAGUGCCUCUCUGAGAGAUUAACA | 0.00449 ± 0.0027
15 | UAGUGACUCACCUUCUCGGAGAGAUUAACA | 0.0757 ± 0.011
16 | UACACUGACACCAUCUCUGAGAGAUUAACA | 0.521 ± 0.036
17 | UAGUGUGACACCUUCUCUGAGAGAUUAUCA | 0.175 ± 0.037
18 | UUGACUGUCUCCUUCUCUGAGAGAUUAACA | 0.746 ± 0.04
19 | UAGUGUGUCACCUUCUCUGAGAGAUUAACG [g2:g25:cont:t1G] | 0.513 ± 0.051
20 | UAGUGAGGUCACCUUCUCUGAGAGAUUAACA | 0.715 ± 0.036
21 | UAGUGACAGUGUUUCUCUGAGAGAUUAACA | 0.00493 ± 0.0019
22 | UAGUGUGUCACCUACUCUGAGAGAUUUACA | 0.428 ± 0.064
23 | AUCACUGUCACGUUCUCUGAGAGAUUAUCA | 0.233 ± 0.029
24 | UAGUCUGUGACCUUCUCUGAGAGAAUAACA | 0.196 ± 0.03

Row | Sequence | pre-steady-state target cleavage rate
25 | UACACUGUCACCAUCUCUGAGAGAUAAACA | 0.208 ± 0.018
26 | UUCACUGUGUCCUUCUCUGAGAGAUUAACA | 0.429 ± 0.028
27 | UAGUGACAGUCCUUCUCUGAGAGAAUAACA | 0.00638 ± 0.0034
28 | UAGUGACACACCUUCUCUGAGAUAUUAACA | 0.155 ± 0.026
29 | UAGUGAGUCACCUUCUCUGUGAGAUUAAGA | 0.0999 ± 0.021
30 | UAGUGACAGUGCUGUCUCUGAGAGAUUAACA | 0.00763 ± 0.0028
31 | UAGUGACACCACCUUCUCUGAGAGAUUAACA | 0.527 ± 0.056
32 | UAGUCUGUCACCAAGUCUGAGAGAUUAAGA | 0.00396 ± 0.0037
33 | UAGUGUGUCACCUUCUCUGAGAGUAUUAACA | 0.285 ± 0.036
34 | UAGACUGUCACGUUCUCUGAGACAUUAACA | 0.00354 ± 0.0028
35 | UAGAGAGUCACCUUCUCUGAGAGAUUAUGA | 0.106 ± 0.025
36 | UUCAGUGUGACCUUCUCUGAGAGAUUAACA | 0.483 ± 0.025
37 | AAGACUGUCACCUUCUCUGAGAGAUAUUGA | 0.00378 ± 0.0034
38 | UAGACACUCACCUUCUCUGAGAGAUUAAGA | 0.144 ± 0.025
39 | UAGUGACUCACCUACUCUGAGAGAUUAACA | 0.275 ± 0.026
40 | AUCACUGUCACCUACUCUGAGAGAUUUUGA | 0.0266 ± 0.0097
41 | UAGUGUGUCUCCUUCUCUGAGAGAAUAACA | 0.0739 ± 0.015
42 | UAGUGACUCACCUUCUCUGAGAGAUGUAACA | 0.206 ± 0.026
43 | UUCAGCUGUCACCUUCUCUGAGAGAUUAACA | 0.681 ± 0.037
44 | UACACAGUCACCUUCUCUGAGUGAUUAACA | 0.0402 ± 0.013
45 | UAGUGAGUCACCUUCUCAGAGAGAUUAAGA | 0.0918 ± 0.02
46 | UAGUGAGUCACCUUCACUGAGAGAUUAUGA | 0.0322 ± 0.011
47 | UAGUGUGUCACCUUCUCUGAGACAUUAUGA | 0.0105 ± 0.0046
48 | UACACUGACACCUACUCUGAGAGAUUAACA | 0.478 ± 0.046

Row | Sequence | pre-steady-state target cleavage rate
49 | UAGACUGUCACCUUCUGUGAGAGAUUAAGA | 0.239 ± 0.037
50 | UAGUGAGUCACGUUCUCUCAGAGAUUAACA | 0.0565 ± 0.0084
51 | UAGUGACAGUCCUUCUCUGAGAGUUUAACA | 0.027 ± 0.0047
52 | AUCACUGUGACCUUCUGUGAGAGAUUAACA | 0.503 ± 0.027
53 | UAGUGACAGUCCUUCUCUGAGAGAUUUUCA | 0.00383 ± 0.0028
54 | UAGUGAGUCACCUUCUCUGACAGAAUAACA | 0.0397 ± 0.0095
55 | UAGUCUCUCACCUUCACUGAGAGAUUAACA | 0.0184 ± 0.0041
56 | UAGACUGUCUCCUUCUCUGAGUGAUUAACA | 0.0159 ± 0.0035
57 | UUCACUGACACCUUCACUGAGAGAUUAACA | 0.425 ± 0.022
58 | UAGUGACUCAACUUCUCUGAGAGAUUAACA | 0.105 ± 0.014
59 | UAGUGUGUCACCUUCUCUGACAGUUUAACA | 0.103 ± 0.015
60 | UAGUGUGUCACCUUCUCAGAGACAUUAACA | 0.164 ± 0.027
61 | UACACACUCACCUUCUCUGAGAGAUUUUGA | 0.0846 ± 0.028
62 | AUCACUGUCACCUUGUCUGAGAGUUUAACA | 0.745 ± 0.15
63 | UAGUGUGUCACCUUCUCUGAGACAUUUACA | 0.028 ± 0.0097
64 | UUCACUGUCACCUUCUCUCACAGAUUAACA | 0.0159 ± 0.0041
65 | UAGACUGUCACCUUCACUGACAGAUUAACA | 0.235 ± 0.023
66 | UAGUGACAGACCUUCUCUGAGAGAUUUUCA | 0.0186 ± 0.0066
67 | UAGACUGUCACCUUCUCUGAGAGAUCUAACA | 0.245 ± 0.034
68 | UAGUGACUGACCUUCUCUGAGACAUUAACA | 0.025 ± 0.0064
69 | UAGACUGUCACCUUCUCUCAGAGAUAAACA | 0.0545 ± 0.0077
70 | UAGUGACACACCUUCUCUGAGUGAUUAACA | 0.0318 ± 0.0051
71 | UACACUGUCACCUUCUCUGAGGAUUAACA | 0.113 ± 0.042
72 | UAGUCUGUCACCAACUCUGAGAGAUUAUGA | 0.0033 ± 0.0031
